Reference: the supplement of paper PMC3334620
Whole data set: some 33,000 sequences, median “E-score (-0.5 to 0.5)” near -0.041, cut for the highest 2% near 0.37. This is one part of the list.

Molecular target: T1, Ecm22 (UniProt Q05958)
T1 sequence: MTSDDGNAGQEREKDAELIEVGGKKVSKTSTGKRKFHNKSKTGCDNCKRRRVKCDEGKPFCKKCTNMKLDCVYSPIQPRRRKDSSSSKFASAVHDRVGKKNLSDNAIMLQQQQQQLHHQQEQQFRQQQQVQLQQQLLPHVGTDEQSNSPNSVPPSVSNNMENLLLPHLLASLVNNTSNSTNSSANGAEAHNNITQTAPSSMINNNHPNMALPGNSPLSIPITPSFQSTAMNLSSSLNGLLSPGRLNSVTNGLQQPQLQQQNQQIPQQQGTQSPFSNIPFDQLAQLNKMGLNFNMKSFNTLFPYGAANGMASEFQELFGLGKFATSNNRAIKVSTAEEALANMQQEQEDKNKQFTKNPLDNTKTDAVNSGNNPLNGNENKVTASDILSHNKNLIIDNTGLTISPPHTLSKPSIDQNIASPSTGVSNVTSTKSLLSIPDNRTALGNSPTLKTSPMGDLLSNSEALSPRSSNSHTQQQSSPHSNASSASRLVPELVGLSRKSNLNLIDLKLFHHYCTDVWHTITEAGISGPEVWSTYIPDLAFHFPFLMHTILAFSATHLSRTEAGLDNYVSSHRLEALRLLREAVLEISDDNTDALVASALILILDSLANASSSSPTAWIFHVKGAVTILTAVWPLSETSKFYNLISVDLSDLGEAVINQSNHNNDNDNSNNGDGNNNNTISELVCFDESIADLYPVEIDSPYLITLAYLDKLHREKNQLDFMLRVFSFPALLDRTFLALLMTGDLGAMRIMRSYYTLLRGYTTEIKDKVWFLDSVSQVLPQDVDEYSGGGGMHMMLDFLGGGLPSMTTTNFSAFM
Assay: PBM E-score (8-mer binding enrichment) (E-score (-0.5 to 0.5)); higher = stronger / more preferred TF binding; most listed sequences are background and not binding sites
Conditions: protein concentration: 200 nM; construct: GST-full length
Outline: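 Universal all-10-mer Agilent arrays, double-stranded by primer extension on fresh or once-stripped slides, were probed with about 100-200 nM GST-tagged yeast transcription factors made by PURExpress. Fluorescent anti-GST detected bound protein, and masliner normalised the scans. E-scores from the Universal PBM Analysis Suite were given to each ungapped eight-base word pooled with its reverse complement.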

In order of falling “PBM E-score” value:
1. CTTCGTTC  0.47
2. CGCTCGTA  0.467
3. ATACGGTA  0.383
4. CGTTCAAG  0.335
5. CGGAACGC  0.295
6. AAGGTCGT  0.294
7. ACCGACCG  0.278
8. CGGCAACG  0.266
9. GAGACGAA  0.26
10. TACGGCTA  0.247
11. TAAACCGA  0.232
12. CGAGACTA  0.22
13. AAACTCGC  0.215
14. CGTTGCAA  0.21
15. CGGGCCCG  0.2
16. GAAAAAAC  0.198
17. CAAGCTCG  0.197
18. GTATCTTA  0.196
19. CGAGACCC  0.196
20. ATAAACGC  0.192
21. CGGACCTC  0.166
22. CTACGTAA  0.156
23. CCGATCAC  0.151
24. TACCTCGA  0.148
25. CAATATGA  0.146
26. AAATCAAG  0.136
27. CGGAGCTA  0.12
28. ATTTCTTC  0.109
29. ACCGGGAA  0.106
30. AACGGCTT  0.0968
31. CGGTAATC  0.0961
32. GTTCGTCA  0.0919
33. AGTTTAAC  0.09
34. CCGGTGAA  0.0859
35. CAGTAACG  0.0795
36. ATCATCAA  0.0769
37. CATCTACG  0.0734
38. AGTAGACC  0.0733
39. AAGAGATC  0.0711
40. ATACCCTA  0.0675
41. AATCTCTA  0.0668
42. CTACGGAA  0.0649
43. GCAAATCC  0.0644
44. CCGTAGCC  0.0617
45. AGCTCCGA  0.0611
46. GTAGTTAA  0.0572
47. CGTGGGGA  0.0544
48. ATAAATCA  0.0524
49. AAAGCCTC  0.0517
50. ACCTAACC  0.0466
51. TAGCGGGA  0.0464
52. CGTGTTCC  0.0444
53. CCGCTAAG  0.0409
54. CGCTTGGC  0.0372
55. ATCGGTTC  0.0329
56. AAGTTCGA  0.0267
57. ATACCACA  0.0238
58. ACTTACTG  0.0213
59. GCAGAGGA  0.0203
60. ACTCATTG  0.0195
61. GACTGTAA  0.0156
62. AGGGGTAC  0.00941
63. ATAATGAT  0.00868
64. GCTAAGAC  0.00642
65. CTTTCTCA  0.00463
66. ATTTGGCA  0.00392
67. ACTTAGGA  0.00223
68. AACACAGT  -0.00107
69. AGTTCTAC  -0.00157
70. TCGATGAA  -0.00675
71. AGCACGCG  -0.0107
72. GCGTCTCC  -0.0115
73. CCGCTTCC  -0.0138
74. GCGGTAGC  -0.0139
75. CTACAATA  -0.0169
76. AACCGGAG  -0.0216
77. GAGAGTAC  -0.0261
78. ATTCTCTC  -0.0272
79. ACCCAACC  -0.0317
80. CCGGAGTC  -0.0329
81. GATACCGA  -0.0344
82. ACATGACA  -0.0361
83. CACCGCCG  -0.0393
84. GGGGCCAA  -0.0478
85. TCGGCAGA  -0.0541
86. CAATTGAC  -0.0565
87. GGGGAGCA  -0.0566
88. GAGACTCA  -0.0576
89. CTCATGTC  -0.059
90. AAATACCC  -0.06
91. AGTGGAGC  -0.061
92. AAGTGAGA  -0.0638
93. AAGAACTT  -0.0668
94. CTCGAACA  -0.0783
95. AGCCCCAC  -0.079
96. CCATTGCA  -0.0823
97. GGCAACCA  -0.0847
98. CCAATCTC  -0.085
99. GGATACCA  -0.0853
100. CTGCAAAG  -0.0894
101. CCACCGCC  -0.0914
102. ATTTACCA  -0.0924
103. ATGGTTAG  -0.0935
104. CCAGGTGA  -0.0943
105. CCAAATAA  -0.101
106. CTATTCAA  -0.102
107. GTGACACA  -0.102
108. AGGGGCTG  -0.103
109. ACTCATGG  -0.107
110. CAGACGCG  -0.112
111. TATGCCAA  -0.123
112. CTGTATCC  -0.126
113. ATGGAGGC  -0.128
114. AGATGAAG  -0.13
115. CTTGATGC  -0.13
116. GTAGCCCA  -0.132
117. AGCTTGGC  -0.133
118. CTGAAGTA  -0.134
119. ACAGTGGC  -0.134
120. AGATGGAG  -0.136
121. TAACTGCA  -0.137
122. CTATCCTA  -0.138
123. AGCCTGGC  -0.142
124. ATGCCTGC  -0.144
125. CATACAGA  -0.144
126. GGGAGTAA  -0.144
127. AGGTGGCA  -0.149
128. CACCCCTA  -0.15
129. AACTTGAC  -0.151
130. GCATTAGA  -0.155
131. CCACTTAA  -0.157
132. ACCGCTTC  -0.157
133. ACAGTTGC  -0.163
134. AGGGCCAT  -0.166
135. AGGTGCCA  -0.166
136. GGGCTGGA  -0.17
137. CCGTTGGC  -0.171
138. GCAGGGGA  -0.174
139. AGCCCTGC  -0.175
140. CTGCTTAA  -0.177
141. AGAGCTGG  -0.179
142. CAGGCCAC  -0.18
143. AGCCATGG  -0.183
144. GAGTAGGC  -0.185
145. ACAACGTG  -0.189
146. GCAGGTGA  -0.189
147. GCTACAAC  -0.199
148. CTCCACAC  -0.202
149. GCTATAGA  -0.202
150. TCCCATAA  -0.212
151. GCCTTTGA  -0.214
152. GGCTAGAC  -0.215
153. CTAGGGCC  -0.216
154. CACCTGGC  -0.216
155. GCGCCGAC  -0.219
156. ATGGTATG  -0.22
157. GATGCGGC  -0.228
158. AGGGGGAC  -0.231
159. CTGCCTGC  -0.232
160. AGGTGCTC  -0.233
161. CCCTGCAC  -0.239
162. CAGATGAG  -0.24
163. AGCATCCA  -0.245
164. CAGCTAAG  -0.264
165. CCAGTTAG  -0.265
166. CTGCCCAG  -0.267
167. AGGGAGTC  -0.28
168. AGTAGATG  -0.286
169. AGCCTTCC  -0.286
170. GCCGCCAC  -0.297
171. GCCTGTTA  -0.313
172. GGAGCCCA  -0.332
